According to the supplement of paper PMC12632987:
The full ranking holds about 4,500 sequences; the median of “median log2 fold change of GCK-ALFA target abundance (FLAG IP / Myc IP barcode read proportion)” is about 0.078, and the lowest 2% start at about -0.6. Some of the results follow.

B1: GBRAP_95_7078 (protein)
chain: DDDLETLEALATTAVDLYEAGLRAQAARAIRAALDEAEALGYAVPDQALMTELLRAAADLALEHFDEAEIERLLAFAKAVGAPQEIIDALEAALAAKKAA
B2: GBRAP_83_6940 (protein)
chain: AEHIVVAAPGDHVAEAVEAALDLHKEEGYEVSLEFLFTDEEAEKVLKEVKKLLAAGVEVDITLIHTDGNKEVLEKAVKEIKEAAKEAGVKVNVEGYVIEP
B3: GBRAP_160_3984 (protein)
chain: EERLEKLIKYIKEEFEETIKMIKGESHEERVTIVRGTIGEIIMELSEDPNVSEEAEEEVDKVGRELVETIESNPELTEEEIEELIKKAEEKIIEILKKDY
B4: GBRAP_160_4366 (protein)
chain: SSALKALAAEIKALREEFEKEAKDLSPEETRTLAIGVLSEVAALVFDNPAVSDELEDEIMAIIDEAIKQLKENKDASPEEIVAITNEAIDRIIALIEAEA
B5: GBRAP_128_3242 (protein)
chain: SQEELLEEAKKLIEEIVKADVETAKKLTEKLIELLKKLNDEAREEVAEYLEKELEKLSAEKLEAVADTLRENRPKLDPYTAALVAGVEIDALELALEKEE
B6: GBRAP_52_5936 (protein)
chain: MEERLERDLDEAIALVKAGDLEGARALMREIARTYSEEEIEAFIERLAARAREAAPEDIPAVLTLAEIAAEVLEEEGWDEVLADDLLARVSAAAYENLQK
B7: GBRAP_43_5753 (protein)
chain: MKELIEGTIDFATLAAESPEISEEQKLKIIKDTMEIVADEKIDLTEELLEMVKAAAKSLSKENLEELLKHAKELAEKYPELKEMFEKAAEILEKAIKALE
B8: GBRAP_137_3659 (protein)
chain: AKVKVEVRIEGDFAEVVIKAEDKETAEKAADIAIDVARETGVAAAVSVDLEEKEVYIDLIGDRAQLRAFIDALAARLAKEYDVDLTVEEDGETREETLKK
B9: GBRAP_35_5544 (protein)
chain: MEEEETVEMLLNTMEDIVLALPDVSPEEQLILTKHLIKLAKLAIEEKPKNKELLKRGIEALKEAIKIVKESDLPEEEKEKLLKELEEAKEKFEKLLKKVE
B10: GBRAP_11_2777 (protein)
chain: KKEKLEEAARLAEELAETIERLLEEGTDDEELRERAERLLEELTELVKEHLDEASKKLAEIAREEWEEAKKDPENRVEHLKRMLAAVRTLLGDILLDLEE
B11: GBRAP_84_7010 (protein)
chain: EKLEKFKEKVREIFENSSPESRIKVLTYILLNFNGKVATAAVEIALEIDPEVAYEALSLAYEQTSDDENEITEEEVLELLKKEGEELAKLFKEAVKLAKA
B12: GBRAP_186_5375 (protein)
chain: EEELEEILDEIIDELEAEGYRVIVVETIRKLTEEEKKAIEREVEAVGALAKETGKKYALVIPFIGSKEEVEEAKKFVEELNKKAEAESGLKVRLAGAVSP
B13: GBRAP_160_4067 (protein)
chain: SEEIEELKKEIEEIFEEAIEEMKGEDHENRVTIARVMKGEIVMLLHERPEVSDEAIEEADKIGDELVETIENNPDLTDEEIEELIEKAKEKIKEVLDKKS
B14: GBRAP_125_3129 (protein)
chain: SKEEDLENLALFLKALGLSEDDIEEAVKEAEKHGFKGTVYAIALALDWEELAELVEKLTEEEVKEILKRVAEELKKNPNLTPEEVKELFLKLAKEVLEKR
B15: GBRAP_35_5507 (protein)
chain: SADDTAAEMLVATIEDLVKAVPDIDVETATTIANQLIDSAEELAEELKDNPEALERLRDAVEALRDAIAKNYGDSPLAKETLARLDALIEKLDKRLEEAK
B16: GBRAP_95_7028 (protein)
chain: NDDVLALASHAEVTLTALELGDRELAARSAREAVEELKKVTPEEIAEALTDEEKLALLRVATEVLSPEEAQEVLDKLLAASTDPETRARLRAIWEEAAAR
B17: GBRAP_14_3789 (protein)
chain: MEEKLKLVEEAREEIKEDARRLAPEKAEEIEKAIDEIFEKLKKKIKETGDAIKAVEEAREELLAKLAEILADEPALTRAALLAFADNELLLLEEELEELE
B18: GBRAP_137_3643 (protein)
chain: PKVTITVKTEGDLVTITVTFDDPEKAEEVAELITDIAVENGALAISVEIDEDGTLTAEIDVPKEKADALLKALVDALTKEFKATVTIKDENTGETTTVKA
B19: GBRAP_11_2904 (protein)
chain: KKEKLEKLAELLKKAVALLKELLAKGTDDEKLHAEALKVAEEALKLAKEVLDESDVELAEEAVELLKQAKADPANAAQYVQQALAIFSVLEGQVLLKIEE
B20: GBRAP_128_3161 (protein)
chain: AVEEAKKKTKELMEKIKNSSLEEVEKLAKELVEMMKTASDEEVEAMAEVILEELPKLSAEKLEILADVLEEKMPELSPFGQNQAADVLVEALNEAEELEE
B21: GBRAP_14_3850 (protein)
chain: VEALVKAVEETAEETKEMAAEVLPEHAEEVNKKIEELAKKIIERIKKEKLNKDEVAELMDEFAEEVAKFIREKGFANETEIAAIRAEIINEAALELEEVE
B22: GBRAP_160_4078 (protein)
chain: SEETEKLEKEIREIGEEAVEWMKEEDYENRVAIARVMAGDILMLVDEYPKMSDEQEEEVDEILDETVAAIEANPDISDEELAALVEETAEKVIEIVKEAA
B23: GBRAP_150_3931 (protein)
chain: SLEELEILTDTALDLVDVIEELGLPAAENALKVAEAAEEEAKEIDEELAKLAKEAAEKLKELVKLMKEGGKEEELKKLIEEARKKIKEAEKRVEKLKKES
B24: GBRAP_128_3258 (protein)
chain: ANPAVVARAEAFVAALKSSDPAERRAIARDFAAWLASVSDEEAAQAVAVVEARLHELTAEQLEILADELRAALPQLSPEKARLAAGLEVDALNEAEEKEE
B25: GBRAP_160_4853 (protein)
chain: SAKLEKALKIVEENEKFALDAIDEAPQSQRGAIATAIAGTTILELEEEGLLSEEMEEKLAEVRDKLEAELKANADADAAVHKELVKKAFEEMKKIIKEMM
B26: GBRAP_128_3326 (protein)
chain: MDEERLEEAEELIEAIVEADVETAKELTRELLKLMETLSPEERERVVELAEERLEELDAEKLEAIADTIEEEMPNLDPETALYANEIRVEALNLAEEKEE
B27: GBRAP_83_6937 (protein)
chain: KEKITVVANDDNIEKSFEIAEDLHKEEGYEVDIDVIITKESIEKLLKEVEKLFKKGVNADLHISLLGVTEEEAEELKKKLEEMAKKYGVNANITVEAIEL
B28: GBRAP_128_3364 (protein)
chain: VNEEILKKVEELVEAIINSSVEEAKELAKEIVELMLKASKEEQEAMAEIIKKKLPELSAEKLEVLADVIREMLPKADPYTKEILSDIEVEALNEAEEKEE
B29: GBRAP_160_4810 (protein)
chain: KEKAEKLMEEARKDLLETAEASADLPIEDRARLLEAEGYTSILDFEEELNISDETEEELDEVVDDLVARLLANPDLSREEVLALVEEAVERMKEIVEKEV

biological target: GABARAP, O95166; test: median log2 fold change of GCK-ALFA target abundance (FLAG IP / Myc IP barcode read proportion) (log2 ratio); each designed protein is fused to an ALFA-tag nanobody in HEK293 cells to bring the named protein to FLAG-tagged glucokinase (GCK); Myc marks an untargeted standard; higher = target protein stabilised (more abundant); settings: target protein: 3xFLAG-MCP-GCK-ALFA reporter; HEK293 landing pad (RPLP)
Sequence (O95166 whole entry, the tested form may be a part): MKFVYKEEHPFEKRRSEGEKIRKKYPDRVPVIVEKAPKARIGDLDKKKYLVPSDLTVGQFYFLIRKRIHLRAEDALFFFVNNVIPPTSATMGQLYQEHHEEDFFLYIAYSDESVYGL
Outline: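 Binders fused to an ALFA nanobody were recombined as a library into HEK293 landing-pad cells, which were induced with 2 μg mL^−1 doxycycline and then transfected to express a FLAG-tagged target and a Myc-tagged standard. After 48 h, circular RNA barcodes recovered by anti-FLAG and anti-Myc immunoprecipitation of lysates were reverse transcribed, amplified and sequenced. Each binder's target abundance is the median log2 ratio of FLAG to Myc barcode read proportions, from barcodes present at ≥10^−7 in both replicates, binders carrying ≥3 barcodes per replicate, a 10^−6 pseudocount and pooled replicates.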

Binder | median log2 fold change
B1 | 0.186
B2 | -0.00062
B3 | 0.34
B4 | 0.0763
B5 | -0.0414
B6 | -0.254
B7 | -0.0458
B8 | 0.0598
B9 | -0.612
B10 | 0.0948
B11 | -0.251
B12 | 0.0698
B13 | 0.0344
B14 | 0.31
B15 | 0.202
B16 | 0.199
B17 | -0.144
B18 | 0.061
B19 | 0.354
B20 | 0.0696
B21 | 0.129
B22 | -0.282
B23 | 0.239
B24 | 0.21
B25 | 0.207
B26 | -0.0419
B27 | 0.224
B28 | 0.314
B29 | -0.669
